# Measurements: PubChem BioAssay (Tox21)
# Values joined by “and” are separate entries in the source; they are usually repeats but may differ in a detail not shown here. Identical values can stand only once. The inconclusive results got no clear call from the source; some entries with a clear call stand among them for comparison. For part of these data: A potency beside an inconclusive call is a rough fit, not a confirmed value. The source holds several records for some structures; these can differ, active in one and inactive in another. Active and inactive are the calls of the source. Unless noted, the call rests on the fitted dose curve; in most records, active means well fitted curve in the direction sought with a large enough effect in the repeat runs; inconclusive means weak or mixed curves; inactive means no such curve, though single readings can be large; an effect the other way counts as inactive or inconclusive.
# Assays:
# [1] = qHTS assay to identify small molecule agonists of the endoplasmic reticulum stress response signaling pathway - cell viability counter screen (AID 1159517; calls by dose curve; further: potency means the concentration at half of the fitted maximal effect; nearly all actives have a fitted effect of over 50% in size)
# In short: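 ESRE-bla HeLa cells, 1,500 per well, seeded overnight then treated with compounds for 5 hr at 37 C. After the beta-lactamase read, viability in the same wells is measured by CellTiter-Glo luminescence after 30 min at room temperature.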
# [2] = biological target: Nuclear receptor ROR-gamma (Homo sapiens) (UniProt P51449); assay: qHTS assay to identify small molecule antagonists of the retinoid-related orphan receptor gamma (ROR-gamma) signaling pathway (AID 1159521; further: potency means the concentration at half of the fitted maximal effect; nearly all actives have a fitted effect of over 50% in size)
# In short: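 Luminescence readout (ONE-Glo, 30 min RT) after 16 h doxycycline induction; loss of signal scored as antagonism. CHO cells with TET-inducible RORγ and RORE-LUC reporter; compounds added 2 h before 1 uM final doxycycline.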
# [3] = qHTS assay to identify small molecule agonists of the AP-1 signaling pathway - cell viability counter screen (AID 1159525; calls by dose curve; further: potency means the concentration at half of the fitted maximal effect; nearly all actives have a fitted effect of over 55% in size)
# In short: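 AP-1-bla ME-180 cells in Opti-MEM with 0.5% dialyzed FBS, compound exposure 5 h at 37 C in 15-point titration. Viability read in the same wells as ATP content by CellTiter-Glo luminescence, normalised to tetra-n-octylammonium bromide and DMSO controls.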
# [4] = qHTS assay to identify small molecule agonists of the AP-1 signaling pathway (AID 1159526; calls by dose curve; further: potency means the concentration at half of the fitted maximal effect; on activation: on the % scale 0 is the no-effect control and ±100 the full control effect); details: ME-180 (cervical carcinoma) AP-1-bla reporter, beta-lactamase FRET ratio, 5 h; activation: at 76.8 µM (top of the series) unless noted
# [5] = qHTS assay to identify small molecule antagonists of the retinoid acid receptor (RAR) signaling pathway - cell viability counter screen (AID 1159551); further: potency means the concentration at half of the fitted maximal effect; nearly all actives have a fitted effect of over 35% in size
# In short: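 Seed C3RL4 cells; next day add compound, then retinol to 1 uM final; incubate 6 h at 37 C; add CellTiter-Glo; read luminescence after 30 min at RT.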
# [6] = qHTS assay to identify small molecule antagonists of the retinoic acid receptor (RAR) signaling pathway (AID 1159552; further: potency means the concentration at half of the fitted maximal effect; nearly all actives have a fitted effect of over 50% in size)
# In short: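 Luminescence from a RARE luciferase reporter in C3RL4 cells served as read-out. Cells received compounds together with 1 uM final retinol and incubated 6 hr at 37 C before detection reagent was added for 30 min at room temperature.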
# [7] = qHTS assay to identify small molecule agonists of the retinoic acid receptor (RAR) signaling pathway (AID 1159553); details: C3RL4 RARE luciferase reporter, agonist, 6 h; activation: at 73.3 µM (top of the series) unless noted; further: potency means the concentration at half of the fitted maximal effect
# In short: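 Activation of retinol signaling was monitored via a RARE luciferase reporter in C3RL4 cells. After 6 hr compound treatment at 37 C, detection reagent was added for 30 min at room temperature before luminescence reading.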
# [8] = qHTS assay to identify small molecule agonists of the constitutive androstane receptor (CAR) signaling pathway - cell viability counter screen (AID 1224836); further: potency means the concentration at half of the fitted maximal effect; nearly all actives have a fitted effect of over 45% in size
# In short: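 Viability read-out: CellTiter-Fluor fluorescence after 23 h compound exposure at 37 C/5% CO2 in double-stable HepG2-CYP2B6-hCAR cells, with PK11195 present at 0.75 uM final; compounds tested in 15-point titration.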
# [9] = qHTS assay to identify small molecule antagonists of the constitutive androstane receptor (CAR) signaling pathway - cell viability counter screen (AID 1224837); further: potency means the concentration at half of the fitted maximal effect; nearly all actives have a fitted effect of over 45% in size
# In short: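 Using CellTiter-Fluor, viability is scored in HepG2 cells stably carrying hCAR and a 2.2kb CYP2B6 reporter after 23 hr compound exposure across 15 concentrations, with CITCO present at 50 nM.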
# [10] = biological target: Retinoic acid receptor RXR-alpha (Homo sapiens) (UniProt P19793); assay: qHTS assay to identify small molecule agonists of the RXR signaling pathway (AID 1159527; calls by dose curve; further: on the % scale 0 is the no-effect control and ±100 the full control effect; nearly all actives have a fitted effect of over 35% in size); details: HEK293T RXRa-UAS-bla, beta-lactamase ratio, 16 h; activation: at 76.8 µM (top of the series) unless noted
# Chain of UniProt P19793 (P19793 whole entry, looked up): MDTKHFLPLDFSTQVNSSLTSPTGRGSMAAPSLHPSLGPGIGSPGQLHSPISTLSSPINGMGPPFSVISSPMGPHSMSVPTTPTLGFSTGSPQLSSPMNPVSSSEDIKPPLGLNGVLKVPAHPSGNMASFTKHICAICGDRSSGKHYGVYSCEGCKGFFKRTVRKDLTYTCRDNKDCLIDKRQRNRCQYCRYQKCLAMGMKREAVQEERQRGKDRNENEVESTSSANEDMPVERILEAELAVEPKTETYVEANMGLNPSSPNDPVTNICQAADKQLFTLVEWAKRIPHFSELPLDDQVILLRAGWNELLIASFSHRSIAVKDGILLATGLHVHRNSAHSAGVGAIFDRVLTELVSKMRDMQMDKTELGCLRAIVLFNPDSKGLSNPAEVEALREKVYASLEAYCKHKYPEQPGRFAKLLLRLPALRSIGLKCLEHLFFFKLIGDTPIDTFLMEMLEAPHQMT
# In short: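 Agonist mode; 9-cis retinoic acid positive control. HEK 293T UAS-bla reporter cells, 2% charcoal-stripped FBS, 16 hr compound exposure at 37 C/5% CO2. LiveBLAzer B/G FRET substrate 2 hr RT; ex 405, em 460/530 nm.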
# [11] = qHTS assay to identify small molecule agonists of the RXR signaling pathway - cell viability counter screen (AID 1159529); further: potency means the concentration at half of the fitted maximal effect; nearly all actives have a fitted effect of over 50% in size
# In short: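 Luminescence from CellTiter-Glo (30 min, RT) measured viability in the same wells as the beta-lactamase reporter readout. Cells: GeneBLAzer RXR-alpha HEK 293T, 2% charcoal-stripped FBS. Compound exposure 16 hr, 37 C.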
# [12] = qHTS assay to identify small molecule antagonists of the retinoid-related orphan receptor gamma (ROR-gamma) signaling pathway - cell viability counter screen (AID 1159520)
# In short: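 Tet-on ROR gamma CHO cells were given compounds for 2 hr, then doxycycline hyclate at 1 uM final, and incubated 16 hr at 37 C. Viability was measured as ATP content by CellTiter-Glo luminescence.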
# [13] = biological target: Luciferin 4-monooxygenase (Photinus pyralis) (UniProt P08659); assay: qHTS assay to identify small molecule inhibitors of firefly luciferase (AID 1224835); further: potency means the concentration at half of the fitted maximal effect; nearly all actives have a fitted effect of over 25% in size
# Chain of UniProt P08659 (P08659 whole entry, looked up): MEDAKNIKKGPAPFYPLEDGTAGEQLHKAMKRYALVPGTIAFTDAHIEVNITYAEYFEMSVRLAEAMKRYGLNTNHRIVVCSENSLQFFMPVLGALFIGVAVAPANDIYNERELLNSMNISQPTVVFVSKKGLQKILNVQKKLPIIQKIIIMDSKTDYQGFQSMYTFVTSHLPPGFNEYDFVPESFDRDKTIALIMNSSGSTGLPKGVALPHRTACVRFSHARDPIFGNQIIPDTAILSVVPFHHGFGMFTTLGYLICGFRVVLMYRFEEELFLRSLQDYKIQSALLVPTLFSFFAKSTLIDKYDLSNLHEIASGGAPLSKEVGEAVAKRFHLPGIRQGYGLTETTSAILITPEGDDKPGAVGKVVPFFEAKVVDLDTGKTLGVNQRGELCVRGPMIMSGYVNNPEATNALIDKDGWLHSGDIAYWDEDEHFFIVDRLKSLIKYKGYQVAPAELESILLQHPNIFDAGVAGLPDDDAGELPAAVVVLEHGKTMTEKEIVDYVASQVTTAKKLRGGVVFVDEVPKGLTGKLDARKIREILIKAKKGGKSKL
# In short: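 Biochemical qHTS: compounds run as interplate titrations against purified firefly enzyme, with D-luciferin and ATP each at its KM concentration. Light output recorded by CCD imaging.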
# Tags describe the fitted curve by direction and shape or compound fluorescence and quenching.
compound,measurement,setting,value
CC(C)(c1ccccc1)c1ccc(O)c(C(C)(C)c2ccccc2)c1,Potency,[1],active: 27.3 µM and active: 27.5 µM
same,Potency,[2],active: 19.2 µM and active: 27.3 µM
same,Potency,[3],active: 12.2 µM and active: 21.9 µM
same,Potency,[4],"inconclusive: 12.2 µM [cytotoxic] and inconclusive: 7.76 µM [cytotoxic, full curve]"
same,Potency,[5],active: 54 µM and active: 61.1 µM
same,Potency,[6],active: 27.1 µM and active: 27.3 µM
same,Potency,[7],"inconclusive: 12.1 µM [inhibitor, full curve] and inconclusive: 68.6 µM [inhibitor, partial curve]"
same,Potency,[8],"inconclusive: 68 µM [cytotoxic, single point] and inconclusive: 68.6 µM [cytotoxic, single point]"
same,Potency,[9],"inconclusive: 68 µM [cytotoxic, single point] and inconclusive: 68.6 µM [cytotoxic, single point]"
O=C(Nc1ccc2[nH]ccc2c1)c1cc2cc(F)ccc2n1Cc1cccc(F)c1,Potency,[1],"inconclusive: 61.6 µM [cytotoxic, single point]"
same,Potency,[2],active: 43.3 µM
same,Potency,[4],inconclusive: 24.5 µM [cytotoxic]
same,activation,[10],inconclusive: -11.4%
same,Potency,[11],"inconclusive: 34.7 µM [cytotoxic, partial curve]"
N#Cc1c(Cl)c(Cl)c(Cl)c(C#N)c1Cl,Potency,[1],active: 5.39 µM and active: 5.49 µM
same,Potency,[3],"inconclusive: 4.8 µM [cytotoxic, full curve]"
same,Potency,[4],"inconclusive: 2.41 µM [falling, full curve]"
same,activation,[4],inconclusive: 14.6%
same,Potency,[11],active: 6.05 µM and active: 4.9 µM
same,Potency,[5],active: 37.8 µM and active: 38.6 µM
same,Potency,[7],active: 847 nM and active: 486 nM
CCCCCCCCCC(CC)c1ccc(S(=O)(=O)O)cc1 (configuration not stated),Potency,[1],"inconclusive: 61.6 µM [cytotoxic, single point] [middle of 4 runs]"
same,Potency,[12],"inconclusive: 61.8 µM [cytotoxic, partial curve, poor fit] and inconclusive: 4.22 µM [cytotoxic, partial curve, poor fit] and inconclusive: 43.3 µM [cytotoxic]"
same,activation,[10],inconclusive: 3.89% and inconclusive: -30%
same,Potency,[11],"inconclusive: 19.3 µM [cytotoxic, partial curve]"
same,Potency,[5],"inconclusive: 43.7 µM [cytotoxic, partial curve, poor fit] and inconclusive: 61.1 µM [cytotoxic]"
same,Potency,[13],inconclusive: 89.4 µM [inhibitor]
